Values belong to the molecule of their own block, whether it stands above or below them.
Assays:
Human GLP-1R = molecular target: T1, Human GLP-1R (Homo sapiens, UniProt P43220); assay: HTRF cAMP assay in HEK-293 cells, human GLP-1R; format: cell-based
T1 construct: expressed in transfected cells; host or cells: HEK-293
Description: (§1) Recombinant HEK-293 cells were grown in T175 culture flasks placed at 37° C. to near confluence in medium (DMEM with 10% FBS) and collected in 2 mL vials in cell culture medium containing 10% DMSO in concentrations of 1-5×10^7 cells/mL. Each vial contained 1.8 mL cell suspension. The vials were slowly frozen to −80° C. in an isopropanol chamber, and then transferred to liquid nitrogen for long term storage.
(§2) Prior to their use, frozen cells were thawed quickly at 37° C., washed with 20 mL cell buffer (1×HBSS; 20 mM HEPES, 0.1% BSA) and centrifuged for 5 minutes at 900 rpm. Cells were resuspended in assay buffer (cell buffer plus 2 mM IBMX) and adjusted to a cell density of 1×10^6 cells/mL. For measurement, 5 μL cell suspension (final 5×10^3 cells/well) and 5 μL of test compound were added to a well of a 384-well plate, followed by incubation for 30 minutes at room temperature. […] The cAMP content of cells was determined using a kit from Cisbio Corp. (cat. no. 62AM4PEC) based on Homogenous Time Resolved Fluorescence (HTRF).

Mouse GLP-1R = molecular target: T2, Mouse GLP-1R (Mus musculus, UniProt O35659); assay: HTRF cAMP assay in HEK-293 cells, mouse GLP-1R; format: cell-based
T2 construct: expressed in transfected cells; host or cells: HEK-293
T2 sequence (O35659 22-463): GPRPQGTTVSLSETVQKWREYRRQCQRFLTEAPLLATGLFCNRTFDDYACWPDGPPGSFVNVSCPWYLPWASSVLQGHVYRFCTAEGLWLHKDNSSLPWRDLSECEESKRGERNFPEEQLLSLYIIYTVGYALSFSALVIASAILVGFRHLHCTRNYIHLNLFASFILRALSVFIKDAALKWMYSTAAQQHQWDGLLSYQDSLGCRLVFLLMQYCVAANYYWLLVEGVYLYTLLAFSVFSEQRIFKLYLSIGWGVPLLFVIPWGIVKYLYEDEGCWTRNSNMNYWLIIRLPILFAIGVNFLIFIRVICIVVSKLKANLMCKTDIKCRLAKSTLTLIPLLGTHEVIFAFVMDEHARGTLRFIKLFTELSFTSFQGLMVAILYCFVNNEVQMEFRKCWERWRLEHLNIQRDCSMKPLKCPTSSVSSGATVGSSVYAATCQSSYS
Description: as §1, §2

Monkey GLP-1R = molecular target: T3, Monkey GLP-1R (Macaca fascicularis, UniProt F8V479); assay: HTRF cAMP assay in HEK-293 cells, monkey GLP-1R; format: cell-based
T3 construct: expressed in transfected cells; host or cells: HEK-293
Description: as §1, §2

[1] = Conformational and thermal stability on UNit (intrinsic fluorescence and static light scattering); format: physicochemical; settings: 5 mg/mL in phosphate buffer pH 7.4; for Tagg (aggregation onset temperature): UNit SLS 266 nm; for Tm (melting temperature): UNit
Description: Conformational stability and propensity to aggregate was determined simultaneously for the GLP-1RA/FGF21 Fc fusion proteins using a UNit (Unchained Labs, Calif., USA). The UNit combines the analysis of intrinsic fluorescence of a protein or polypeptide to detect unfolding of the protein or polypeptide and a Static Light Scattering (SLS) measurement in order to investigate aggregation behavior.
Data were acquired for the fusion proteins at a concentration of 5 mg/mL formulated in phosphate buffer at pH 7.4. A volume of 9 μL of each sample were loaded into a UNi capillary holder and analyzed in triplicate on the UNit. The temperature was increased from 20 to 95° C. at a constant linear rate of 0.3° C./minutes. The BaryCentric Mean (BCM) indicating the intrinsic fluorescence and SLS signals detected with a 266 nm laser were plotted against the applied temperature in order to obtain melting temperatures (Tm) and aggregation onset temperatures (Tagg). Data were analyzed using the UNit Analysis software v.

[2] = Pharmacokinetics after single subcutaneous administration in mouse; format: in vivo, female C57BI/6 mice; settings: 0.3 mg/kg subcutaneous
Description: (§3) Plasma concentrations and pharmacokinetic parameters of GLP-1 RA/FGF21 Fc fusion proteins were determined after single subcutaneous administration of 0.3 mg/kg in solution to female C57BI/6 mice or male Cynomolgus monkeys using three different methods. Blood samples were obtained at time points from 30 minutes to 168 hours after dosing. […]
(§4) a.) Bioanalytical Screening Method for Quantification of the Intact FGF21 Part of the GLP-1 RA/FGF21 Fc Fusion Proteins Plasma samples were analyzed for the intact FGF21 part of the fusion proteins with an ELISA kit (F1231-K01, Eagle Biosciences, USA). The assay utilized the two-site sandwich technique with two selected antibodies that bound to different epitopes of human intact FGF21. One of the antibodies specifically bounds to the N-terminal amino acids (aa) 29-35 of human FGF21 and the other antibody specifically bound to the C-terminus (aa 203-209) of human FGF21. Assay standards, controls and unknown samples were added directly to wells of microplate that is coated with an anti-human FGF21 (aa 29-35)-specific antibody. Simultaneously, a horseradish peroxidase conjugated anti-human FGF21 (aa 203-209)-specific antibody was added to each well. After the first incubation period, the antibody on the walls of microtiter wells captured human FGF21 in the sample and unbound protein in each microtiter well is washed away. […] For the detection of this immunocomplex, the well was then incubated with a substrate solution in a timed reaction and then measured in a spectrophotometric microplate reader. […]
(§5) b.) Bioanalytical Screening Method for Quantification of the Intact Full-Length Fusions Proteins The concentration of the full-length GLP-1RA/FGF21 Fc fusion proteins in plasma were determined utilizing an ELISA method. […] Following washing 3 times with 300 μL PBS-T 150 μL read buffer was added to the wells. […]
(§6) c.) Bioanalytical Screening Method for Quantification of the Intact GLP-1 Part of the GLP-1 FGF21 Fc Fusion Proteins Plasma samples were analyzed for the intact GLP-1 part of the fusion proteins with a GLP-1 ELISA method. […]

[3] = Pharmacokinetics after single subcutaneous administration in non-human primate; format: in vivo, male Cynomolgus monkeys; settings: 0.3 mg/kg subcutaneous
Description: as §3, §4, §5, §6

T3 sequence (F8V479 24-463): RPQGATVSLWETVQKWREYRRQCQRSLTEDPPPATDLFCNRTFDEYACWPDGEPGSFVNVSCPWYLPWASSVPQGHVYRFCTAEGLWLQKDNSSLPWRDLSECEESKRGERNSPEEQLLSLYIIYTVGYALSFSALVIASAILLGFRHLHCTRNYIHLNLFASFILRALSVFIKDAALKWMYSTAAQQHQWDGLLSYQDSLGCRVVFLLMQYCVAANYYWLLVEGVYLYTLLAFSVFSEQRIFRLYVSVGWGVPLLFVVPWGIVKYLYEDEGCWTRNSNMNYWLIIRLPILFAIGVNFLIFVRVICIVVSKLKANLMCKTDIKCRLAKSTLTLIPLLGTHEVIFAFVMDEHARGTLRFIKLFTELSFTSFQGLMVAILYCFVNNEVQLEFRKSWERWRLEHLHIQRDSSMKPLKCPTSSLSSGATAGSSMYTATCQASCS
T1 sequence (P43220 24-463): as the sequence (F8V479 24-463) above, with N112S, S120F, G202S, V205L, F237L, R241W, V249I counted along it

B2: 4 (protein)
chain: HGEGTFTSDLSKQLEEERVQLFIEWLKATGPSSGAPPPSGGGGGGGSGGGGSGGGGSA[… human IgG4 Fc with changes …]GGGSGSAHPIPDSSPLLQFGGQVRQRYLYTDDACQTEAHLEIREDGTVGGAADQSPESLLQLKALKPGVIQILGVKTSRFLCQRPDGALYGSLHFDPEACSFRELLLEDGYNVYQSEAHGLPLHLPGCKSPHRDPAPRGPARFLPLPGLPPAPPEPPGILAPQPPDVGSSDPLSMVGSQGRSPSYAS
modifications: Fusion Protein
- EC50 (Human GLP-1R): 0.313 nM
- EC50 (Mouse GLP-1R): 0.00529 nM
- EC50 (Monkey GLP-1R): 0.262 nM
- Tagg (aggregation onset temperature) [1]: 64.0 °C
- Tm (melting temperature) [1]: 64.9 °C

B3: 39 (protein)
chain: HGEGTFTSDLSIQLEEEAVQEFIEWLLATGPSSGAPPPSGGGGGGGSGGGGSGGGGSA[… human IgG1 Fc with changes …]GGGSGSAHPIPDSSPLLQFGGQVRQRYLYTDDACQTEAHLEIREDGTVGGAADQSPESLLQLKALKPGVIQILGVKTSRFLCQRPDGALYGSLHFDPEACSFRELLLEDGYNVYQSEAHGLPLHLPGCKSPHRDPAPRGPARFLPLPGLPPAPPEPPGILAPQPPDVGSSDPLSMVGSQGRSPSYAS
modifications: Fusion Protein
- EC50 (Human GLP-1R): 0.0085 nM
- EC50 (Mouse GLP-1R): 0.00116 nM
- EC50 (Monkey GLP-1R): 0.0123 nM

B5: 6 (protein)
chain: HGEGTFTSDLSKQLEEERVQLFIEWLKATGPSSGAPPPSGGGGGGGSGGGGSGGGGSA[… human IgG4 Fc with changes …]GGGSGSAHPIPDSSPLLQFGGQVRQRYLYTDDACQTEAHLEIREDGTVGGAADQSPESLLQLKALKPGVIQILGVKTSRFLCQRPDGALYGSLHFDPEACSFRELLLEDGYNVYQSEAHGLPLHLPGCKSPHRDPAPRGPARFLPLPGLPPAPPEPPGILAPQPPDVGSSDPLSMVYPSQGRSPSYAS
modifications: Fusion Protein
- EC50 (Human GLP-1R): 0.383 nM
- EC50 (Mouse GLP-1R): 0.00645 nM
- EC50 (Monkey GLP-1R): 0.347 nM
- Tagg (aggregation onset temperature) [1]: 63.4 °C
- Tm (melting temperature) [1]: 64.1 °C

Continued by falling EC50 (Human GLP-1R), values first:

- EC50 (Human GLP-1R): 0.219 nM
- EC50 (Mouse GLP-1R): 0.0028 nM
- EC50 (Monkey GLP-1R): 0.161 nM
B1: 1 (protein)
chain: HGEGTFTSDLSKQLEEERVQLFIEWLKATGPSSGAPPPSGGGGGGGSGGGGSGGGGSA[… human IgG1 Fc with changes …]GGGSGSAHPIPDSSPLLQFGGQVRQRYLYTDDACQTEAHLEIREDGTVGGAADQSPESLLQLKALKPGVIQILGVKTSRFLCQRPDGALYGSLHFDPEACSFRELLLEDGYNVYQSEAHGLPLHLPGCKSPHRDPAPRGPARFLPLPGLPPAPPEPPGILAPQPPDVGSSDPLSMVGSQGRSPSYAS
modifications: Fusion Protein
- Tagg (aggregation onset temperature) [1]: 75.5 °C
- Tm (melting temperature) [1]: 70.5 °C

- EC50 (Human GLP-1R): 0.194 nM
- EC50 (Mouse GLP-1R): 0.00293 nM
- EC50 (Monkey GLP-1R): 0.164 nM
B4: 2 (protein)
chain: HGEGTFTSDLSKQLEEERVQLFIEWLKATGPSSGAPPPSGGGGGGGSGGGGSGGGGSA[… human IgG1 Fc with changes …]GGGSGSAHPIPDSSPLLQFGGQVRQRYLYTDDACQTEAHLEIREDGTVGGAADQSPESLLQLKALKPGVIQILGVKTSRFLCQRPDGALYGSLHFDPEACSFRELLLEDGYNVYQSEAHGLPLHLPGCKSPHRDPAPRGPARFLPLPGLPPAPPEPPGILAPQPPDVGSSDPLSMVYPSQGRSPSYAS
modifications: Fusion Protein
- Tagg (aggregation onset temperature) [1]: 71.5 °C
- Tm (melting temperature) [1]: 69.6 °C
- t1/2 mouse ([2]; FGF21 intact assay): 27.6 h
- t1/2 mouse ([2]; GLP-1 intact assay): 27.8 h
- t1/2 mouse ([2]; full-length assay): 16.1 h
- t1/2 monkey ([3]; FGF21 intact assay): 42.5 h
- t1/2 monkey ([3]; GLP-1 intact assay): 33.4 h
- t1/2 monkey ([3]; full-length assay): 23.5 h

Source: patent US20230250147A1, “GLP-1R AGONISTIC PEPTIDES WITH REDUCED ACTIVITY” (SANOFI, priority 2020, published 2023)
